Screen size: about 39,000 compounds; about 220 (0.56%) showed activity. This is one part of the list.
Test system: Escherichia coli K-12 BW25113
Assay: relative growth (OD600 normalised to plate interquartile mean) (fraction); higher = less growth inhibition, active = 0.2 or less
Conditions: 50 µM; LB; incubation time: overnight (16-24 h)
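Also: static incubation at 37 °C against the wild-type strain, values averaged over two biological replicates.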

Row | SMILES | relative growth
1 | C[C@H]1CCCCO[C@H](CN(C)C(=O)Nc2ccc(C(F)(F)F)cc2)[C@@H](C)CN([C@@H](C)CO)C(=O)c2cc(NC(=O)Nc3ccc(F)cc3)ccc2O1 | inactive: 0.986
2 | CCCNC(=O)N1C[C@@H](O)COC[C@H]2O[C@@H](CC(=O)N3CCOCC3)CC[C@@H]21 | inactive: 0.996
3 | C[C@@H]1CN([C@@H](C)CO)C(=O)c2cccc(NS(=O)(=O)c3ccc(Cl)cc3)c2O[C@@H]1CN(C)Cc1ccc(Cl)c(Cl)c1 | inactive: 0.947
4 | C[C@H]1CN([C@@H](C)CO)C(=O)c2cc(C#Cc3ccccn3)cnc2O[C@@H]1CN(C)C(=O)CCN1CCCCC1 | inactive: 0.995
5 | COc1ccc(S(=O)(=O)Nc2ccc3c(c2)C(=O)N([C@@H](C)CO)C[C@@H](C)[C@@H](CN(C)C(=O)Nc2ccc(F)cc2)OCCCC[C@H](C)O3)cc1 | inactive: 1
6 | C[C@@H]1CN([C@@H](C)CO)C(=O)c2cc(NS(C)(=O)=O)ccc2O[C@H]1CN(C)S(=O)(=O)c1cn(C)cn1 | inactive: 0.998
7 | COc1ccc(S(=O)(=O)N[C@H]2C=C[C@H](CC(=O)N3CCN(c4ccccc4)CC3)O[C@@H]2CO)cc1 | inactive: 0.993
8 | COc1ccccc1-c1ccc2c(c1)O[C@H](CN(C)CC1CCOCC1)[C@@H](C)CN([C@@H](C)CO)S2(=O)=O | inactive: 1
9 | CN1CCN(C(=O)[C@@H]2[C@@H](CO)[C@@H]3Cn4c(cccc4=O)[C@H]2N3Cc2ccncc2)CC1 | inactive: 0.993
10 | COc1ccc(S(=O)(=O)N(C)C[C@H]2Oc3ccc(NS(=O)(=O)c4cn(C)cn4)cc3C(=O)N([C@H](C)CO)C[C@H]2C)cc1 | inactive: 1.02
11 | C[C@H](CO)N1C[C@H](C)[C@@H](CN(C)S(=O)(=O)c2cccs2)Oc2ccc(NS(=O)(=O)c3ccccc3)cc2C1=O | inactive: 1.01
12 | C[C@H](CO)N1C[C@H](C)[C@@H](CN(C)CC2CC2)Oc2c(NS(=O)(=O)c3cccs3)cccc2C1=O | inactive: 1.01
13 | Cn1c(N)c(S(=O)(=O)N2CCCC[C@@H]2c2cccnc2)c(=O)n(C)c1=O | inactive: 1.01
14 | CN1CCC(CO)CC1 | inactive: 0.981
15 | C[C@@H]1CN([C@@H](C)CO)C(=O)CCCn2cc(nn2)CO[C@@H]1CN(C)S(=O)(=O)c1ccc(C#N)cc1 | inactive: 0.986
16 | CC(C)(C)OC(=O)C[C@@H]1CC=CC[C@H](CC(=O)N[C@@H](CO)Cc2ccccc2)C(=O)N2CCC[C@H]2COC1=O | inactive: 0.989
17 | CC(C)NC(=O)Nc1ccc2c(c1)C(=O)N([C@H](C)CO)C[C@@H](C)[C@H](CN(C)Cc1ccccc1)OCCCC[C@@H](C)O2 | inactive: 1.02
18 | C[C@@H]1CCCCO[C@H](CN(C)Cc2ccc(C(=O)O)cc2)[C@H](C)CN([C@@H](C)CO)C(=O)c2cc(NC(=O)CCC(F)(F)F)ccc2O1 | inactive: 0.98
19 | C[C@@H]1CCCCO[C@H](CN(C)S(=O)(=O)c2cn(C)cn2)[C@@H](C)CN([C@H](C)CO)C(=O)c2cc(NS(=O)(=O)c3ccc(F)cc3)ccc2O1 | inactive: 1.01

Row | SMILES | relative growth
20 | C[C@@H]1CCCCO[C@@H](CN(C)Cc2ccncc2)[C@@H](C)CN([C@@H](C)CO)C(=O)c2cc(NC(=O)Nc3cccc4ccccc34)ccc2O1 | inactive: 0.994
21 | COc1cccc(S(=O)(=O)N(C)C[C@@H]2Oc3ncc(C#CCC(C)C)cc3C(=O)N([C@H](C)CO)C[C@@H]2C)c1 | inactive: 1.03
22 | COC(=O)c1cc(=O)nc2n1[C@H]1O[C@H](CO)[C@H](O)[C@H]1O2 | inactive: 1.01
23 | C[C@H](CO)N1C[C@H](C)[C@H](CN(C)S(C)(=O)=O)Oc2c(NS(=O)(=O)c3cccs3)cccc2C1=O | inactive: 0.965
24 | Cc1ccccc1NC(=O)CC(C)C | inactive: 1
25 | C[C@@H]1CN([C@H](C)CO)C(=O)c2cccc(NS(=O)(=O)c3ccc(F)cc3)c2O[C@H]1CN(C)CC1CC1 | inactive: 0.91
26 | C[C@H]1CN([C@@H](C)CO)C(=O)c2cccc(NS(=O)(=O)c3ccc(Cl)cc3)c2O[C@H]1CN(C)Cc1ccc(C(=O)Nc2ccccc2N)cc1 | inactive: 1.03
27 | C[C@@H]1CN([C@@H](C)CO)C(=O)c2cccc(NS(=O)(=O)c3ccccc3)c2O[C@@H]1CN(C)Cc1ccc(-c2ccccc2)cc1 | inactive: 1.01
28 | C[C@H](CO)N1C[C@H](C)[C@H](CN(C)C(=O)Cc2cccnc2)Oc2ncc(C#CCc3ccccc3)cc2C1=O | inactive: 0.984
29 | NCc1c[nH]c(=S)n1[C@H]1CCc2c(F)cc(F)cc2C1 | inactive: 0.998
30 | Cc1ccc(NC(=O)Nc2cc(C(F)(F)F)ccc2F)cc1Nc1ccc2c(c1)NC(=O)/C2=C\c1ccc[nH]1 | inactive: 1.02
31 | C[C@@H]1CN([C@H](C)CO)C(=O)Cc2cc(NS(=O)(=O)c3ccc(Cl)cc3)ccc2O[C@H]1CN(C)Cc1ccc(Oc2ccccc2)cc1 | inactive: 0.954
32 | O=C(Cc1ccccn1)NCC[C@@H]1CC[C@@H](NC(=O)CN2CCOCC2)[C@@H](CO)O1 | inactive: 0.993
33 | Nc1ccn([C@@H]2O[C@H](CO)[C@@H](O)[C@@H]2O)c(=O)n1 | inactive: 1.01
34 | C[C@H]1CCCCO[C@@H](CN(C)C(=O)Nc2ccc(F)cc2)[C@@H](C)CN([C@@H](C)CO)C(=O)c2cc(NC(=O)c3ccccc3)ccc2O1 | inactive: 0.996
35 | COc1ccc([Si](C)(C)[C@H]2[C@H](CCO)O[C@@]3(C(=O)N(Cc4ccc(N5C(=O)COc6ccccc65)cc4)c4ccccc43)[C@@H]2C)cc1 | inactive: 1.02
36 | Cn1c(=O)c2[nH]cnc2n(C)c1=O | inactive: 1.1
37 | C[C@H](CO)N1C[C@H](C)[C@H](CN(C)Cc2ccc(C(=O)O)cc2)Oc2ccc(NC(=O)Cn3cnnn3)cc2CC1=O | inactive: 1.01
38 | C[C@@H]1CN([C@@H](C)CO)C(=O)c2cc(NC(=O)Nc3cccc4ccccc34)ccc2O[C@@H](C)CCCCO[C@H]1CN(C)Cc1ccncc1 | inactive: 0.985

Row | SMILES | relative growth
39 | Cc1ccc(S(=O)(=O)Nc2ccc3c(c2)C(=O)N([C@H](C)CO)C[C@@H](C)[C@H](CN(C)C(=O)Nc2ccc(C(F)(F)F)cc2)OCCCC[C@H](C)O3)cc1 | inactive: 0.998
40 | COc1ccc(NC(=O)Nc2ccc3c(c2)C(=O)N([C@H](C)CO)C[C@H](C)[C@H](CN(C)C(=O)C2CCCCC2)OCCCC[C@@H](C)O3)cc1 | inactive: 0.986
41 | O=C(C[C@@H]1CC=CCC[C@H](Cc2ccc(F)cc2)C(=O)OC[C@H](Cc2c[nH]c3ccccc23)NC1=O)N[C@@H](CO)Cc1ccccc1 | inactive: 0.986
42 | C[C@H]1ON(c2ccc(C(=O)OC(C)(C)C)cc2)[C@@H](c2ccc(O)cc2)[C@@H]1C(=O)N1C(=O)OC[C@@H]1c1ccccc1 | inactive: 1.01
43 | CC1=C(/C=C/C(C)=C/C=C/C(C)=C/C=C/C=C(C)/C=C/C=C(C)/C=C/C2=C(C)C(=O)[C@@H](O)CC2(C)C)C(C)(C)C[C@H](O)C1=O | inactive: 0.988
44 | C=CCOC(=O)[C@H]1[C@@H]2C(=O)O[C@@H](c3ccccc3)[C@@H](c3ccccc3)N2[C@@H](c2ccc(OCCOC(=O)[C@@H]3C[C@@H]4C(=O)N[C@@H](Cc5ccccc5)C(=O)N4[C@@H]3c3ccc(O)cc3)cc2)[C@]12C(=O)Nc1ccccc12 | inactive: 1.06
45 | COc1ccc(NC(=O)N(C)C[C@H]2OCCCC[C@H](C)Oc3ccc(NS(=O)(=O)c4ccc(Cl)cc4)cc3C(=O)N([C@@H](C)CO)C[C@H]2C)cc1 | inactive: 1.03
46 | COCC#Cc1ccc2c(c1)O[C@H](CN(C)Cc1ccccc1F)[C@@H](C)CN([C@@H](C)CO)S2(=O)=O | inactive: 1.06
47 | C[C@@H]1CN([C@@H](C)CO)C(=O)c2cc(NC(=O)Nc3ccccc3)ccc2O[C@@H](C)CCCCO[C@H]1CN(C)C(=O)Nc1ccc(C(F)(F)F)cc1 | inactive: 1
48 | C[C@@H]1CCCCO[C@H](CN(C)C(=O)Nc2ccc(C(F)(F)F)cc2)[C@@H](C)CN([C@H](C)CO)C(=O)c2cc(NC(=O)Nc3ccc(C(F)(F)F)cc3)ccc2O1 | inactive: 1
49 | C[C@@H]1CN([C@@H](C)CO)C(=O)Cc2cc(NS(=O)(=O)c3ccccc3)ccc2O[C@@H]1CN(C)Cc1ccc2c(c1)OCO2 | inactive: 0.996
50 | NCCc1[nH]cnc1-c1cccs1 | inactive: 1
51 | CC(C)NC(=O)N(C)C[C@@H]1OCCCC[C@@H](C)Oc2ccc(NC(=O)Nc3ccc(C(F)(F)F)cc3)cc2C(=O)N([C@H](C)CO)C[C@@H]1C | inactive: 1.07
52 | C[C@H]1CN([C@@H](C)CO)C(=O)c2cccc(NC(=O)c3ccc(-c4nccs4)cc3)c2O[C@@H]1CN(C)C(=O)Nc1ccccc1 | inactive: 0.984
53 | C[C@@H]1CCCCO[C@@H](CN(C)C(=O)CCC(F)(F)F)[C@H](C)CN([C@@H](C)CO)C(=O)c2cc(NS(=O)(=O)c3cccs3)ccc2O1 | inactive: 0.861
54 | C[C@H]1CN([C@@H](C)CO)C(=O)c2cccc(NC(=O)Nc3ccc(C(F)(F)F)cc3)c2O[C@H]1CN(C)Cc1ccc(C(=O)O)cc1 | inactive: 0.963
55 | COCCNC(=O)C[C@@H]1C[C@H]2c3cc(NC(=O)COC)ccc3O[C@H]2[C@@H](CO)O1 | inactive: 0.998
56 | C[C@H](CO)N1C[C@H](C)[C@H](CN(C)S(C)(=O)=O)Oc2ccc(NC(=O)C3CCCCC3)cc2CC1=O | inactive: 1
57 | C[C@@H]1CCCCO[C@H](CN(C)C(=O)Nc2ccc(F)cc2)[C@@H](C)CN([C@@H](C)CO)C(=O)c2cc(NC(=O)c3ccncc3)ccc2O1 | inactive: 0.983
